Here are results for 33 compounds from PubChem BioAssay (NCI).

Where “and” joins values, the source holds several entries; their conditions need not be identical. Equal values may be shown once.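 Growth conditions: 96-well plates. Treatment: test compound, 48 hours, 5 concentrations. Analysis: linear interpolation between bracketing concentrations; unreached endpoints set to highest concentration. Abbreviation: GI50, concentration required for 50% inhibition of growth. TGI: concentration producing complete growth inhibition.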 Some results are limits rather than exact numbers.

The experiment concerns NCI-H322M lung. The experiment in a line: inhibition of tumour cell growth, NCI panel, 48 h.
Regarding `COC(=O)NC/C=C\c1nc(CC/C=C\C(=O)OC2CC3CC(=O)O[C@H](/C=C/CC(C)C)C[C@H]4CCC(C)C(C[C@H](OC)CC(C2)O3)O4)co1` (stereo partly drawn), the GI50 was 8.95 µM and the TGI was more than 100 µM.
In the same order, the values of `CC(C)(C)C(=O)Nc1ccccc1I(=O)=O` are more than 100 µM and more than 100 µM.
`CN(C)c1ccc(/C=N/n2c(-c3ccccc3)nc3ccccc3c2=O)cc1` showed a TGI of more than 100 µM.
The same measure, in the same setting: for `COc1ccc2c([nH]c3cc(O)c(C)cc32)c1C=O` the value was more than 25 µM; for `NCCCN(CCCN)CCCNCc1c2ccccc2c(CNCCCN(CCCN)CCCN)c2ccccc12`, 31 µM; for `O=C(CNC(=O)OCc1ccccc1)Oc1ccccc1`, more than 100 µM.
In the case of `O=C1CCCCCCCC/C=C/CCC(c2ccco2)O1` (stereo not drawn), the GI50 is 10.8 µM and the TGI is more than 100 µM.
The compound `CC(C)=CC(C)C(C(O)CCC1(c2ccoc2)OCCO1)S(=O)(=O)c1ccccc1` (stereo not drawn) came in with a TGI of more than 100 µM.
For `N#CC1=C(N)NC(=S)NC12Nc1ccccc1O2` (stereo not drawn), the GI50 was 66.3 µM and the TGI is more than 100 µM.
On the same counts, the results for `CCOC(=O)Cc1csc(/N=C2\NC(=O)/C(=C3\C(=O)N(C)c4ccccc43)S2)n1` are 22.9 µM and 80.4 µM.
For `CC1Cc2c(N)nc(NN)nc2NC1=O` (stereo not drawn), the TGI was more than 100 µM.
Still for that read-out and setting: the figure for `S=c1[nH]c(=S)c2sc(=S)n(-c3ccccc3)c2[nH]1` is more than 100 µM.
For the compound `CC(=O)OCC1OC(OC2CC3C(C)(C)C(OC(C)=O)CC[C@]3(C)C3CCC45CC4(CC[C@H]5C(C)CC(O)[C@@H](O)C(C)(C)O)[C@]23C)C(O)C(O)C1O` (stereo partly drawn), the GI50 is 5.24 µM; the TGI was 14 µM and 17.4 µM.
As to `O=C(Nc1ccc(Cl)cc1)c1cccc([N+](=O)[O-])c1O`, the TGI was found to be 55.3 µM.
Same read-out and setting: the figure for `O=C1OC(C2Cc3ccccc3C2=O)c2ccccc21` (stereo not drawn) is more than 100 µM.
Consider `COc1ccc2c(c1)nc(N)c1c3cc(OC)c(OC)cc3cn21`, for which the GI50 is 10.9 µM and the TGI is 23.2 µM.
For `Nc1nc(Nc2ccc3c(c2)CC[C@@H](N2CCCC2)CC3)nn1-c1cc2c(nn1)-c1ccccc1CCC2`, the GI50 was 1.03 µM and the TGI was determined as 2.47 µM.
`COc1ccc(-c2cc(C3CC3)nc(SCC(=O)O)c2C#N)cc1` showed a TGI of more than 100 µM.
On the same count and under the same terms, the figure for `COc1ccc(C2c3cc4c(cc3OC(NNC(N)=O)C2C)OCO4)cc1` (stereo not drawn) is more than 77.1 µM; for `O=C1/C(=C/c2ccc(O)c([N+](=O)[O-])c2)CCC/C1=C\c1ccc(O)c([N+](=O)[O-])c1` it is 50 µM and 32 µM.
On to `CCCCCCCCCNCCCCCCCCC`, for which the GI50 was 14.8 µM and the TGI is 31 µM.
In turn, `O=c1[nH]nc(-c2ccc([N+](=O)[O-])cc2)n1/N=C/c1ccc([N+](=O)[O-])cc1` came in with a TGI of more than 100 µM.
On the same count and under the same terms, the figure for `COC1/C=C\C=C(/C)C(=O)Nc2cc3nc4ccc(Br)cc4oc-3c(c2=O)CC(C)CC(OC)C(O)C(C)/C=C(\C)C1OC(N)=O` (stereo not drawn) is 25.4 µM; for `CCOC(O)C(F)(F)F` (stereo not drawn) it is more than 100 µM.
Same read-out and setting: for `O=c1[nH]c2nccnc2c2c([N+](=O)[O-])cccc12` the value was more than 100 µM; for `CC1(C)C2CCC1(C)C(N/C(=C(/C(Cl)=C(Cl)Cl)[N+](=O)[O-])n1nnc3ccccc31)C2` (stereo not drawn), more than 100 µM.
The same measure, in the same setting: for `CC(=O)c1cc2c(s1)C(=O)c1scc(C(C)=O)c1C2=O` the value was 1.68 µM; for `O=C(CCCC1Cc2ccccc2C1=O)c1ccccc1` (stereo not drawn), more than 100 µM.
As to `OCc1c2c(cc3c1CC1(C3)Cc3cc4c(c(CO)c3C1)CCC4)CCC2`, the TGI came to 38.5 µM.
`Cc1cccc(C)c1NC(=O)/C(Cl)=C(/Cl)C(=O)O` showed a TGI of 68.8 µM.
For `COc1c(C)c2c(c(O)c1C/C=C(\C)CCC(=O)OCCN1CCOCC1)C(=O)OC2`, the GI50 was 0.696 µM and the TGI was more than 100 µM.
The compound `C/C=C1/CN2[C@@H](C3=C[C@@H]4[C@@H]5N(C3=O)c3ccccc3[C@@]53CCN5C/C(=C/C)[C@@H]4C[C@H]53)C[C@@]34c5ccccc5N5C(=O)CC=C([C@H]1C[C@H]23)[C@H]54` displayed a TGI of 12.9 µM.
The same measure, in the same setting: for `CCC(C)NC(=S)N/N=C(\C)c1ccccn1` (stereo not drawn) the value was more than 100 µM.
